Drawing on PubChem BioAssay (NCI), this text covers TGI and GI50 for 61 compounds.

“And” between values parts separate entries of the source, which are not always exact repeats. Identical values can stand only once.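 Exposure lasted 48 hours, with cells grown in 96-well plates and compounds tested at five concentrations. GI50 = concentration required for 50% inhibition of growth. TGI: total growth inhibition.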

This test has as its system NCI-H322M lung. Put plainly: inhibition of tumour cell growth, NCI panel, 48 h.
The compound `CC(C)=CCCC(C)C1=C(O)C(=O)C(C)=CC1=O` (stereo unspecified) displayed a TGI above 65.7 µM.
Regarding `CCN(CC)c1ccc(/C=C/C=C2\NC(=O)NC2=O)cc1`, the GI50 was 26.1 µM and the TGI is above 100 µM.
With `CCN1CCC(O)(/C=C/c2ccc(OC)cc2)C(C(=O)/C=C/c2ccc(OC)cc2)C1` (stereo unspecified), the TGI was found to be 27.3 µM.
In turn, `Cc1coc2c1C(OC(=O)C(C)C)C1(C)C(C)CCC(O)C1C2=O` (stereo unspecified) gave a TGI above 100 µM.
`CN(C)CC/C(=N\Nc1ccc(Cl)cc1Cl)c1ccccc1` yielded a TGI of 66.7 µM.
Still for that read-out and setting: for `CCCCCCCCCCC(C)CCCCCCC(=O)O` (stereo unspecified) the value was above 100 µM.
Same read-out and setting: to `NNC(=O)C(=O)N/N=C(\CCC(=O)Nc1ccc(Cl)cc1)Cc1nc2ccccc2s1` belongs above 100 µM.
Regarding `Cc1ccc(-c2cc(O)c(-c3ccc(C)cc3C)cc2O)c(C)c1`, the GI50 is 19 µM and the TGI was 55.4 µM.
On to `CCOC(=O)[C@@H]1ON2OC(OC3CCCC3(c3ccccc3)c3ccccc3)C(OC(C)=O)[C@H]3OC(=O)[C@@H]1C32` (stereo partly specified), for which the TGI was above 100 µM.
Take `O=Nc1c(-c2c(O)[nH]c3ccc(Br)cc23)[nH]c2ccccc12`: the GI50 was 3.98 µM and the TGI came out at 95.1 µM.
For the compound `OC1C[C@H](c2ccccc2)C2(C(O)c3ccccc3C2O)[C@@H](c2ccccc2)C1` (stereo partly specified), the TGI was above 100 µM.
In the case of `O=C1C(Cl)=C(Nc2cccc(O)c2)C(=O)N1Cc1ccc(Cl)cc1Cl`, the GI50 was 11.1 µM and the TGI was found to be 23.7 µM.
Regarding `O=c1c2ccccc2nc(N/N=C/c2ccccc2O)n1-c1ccccc1`, the TGI was above 100 µM.
As to `Cc1c(Cl)cccc1NC(=O)c1sc2nc3c(cc2c1N)CCCCC3`, the GI50 was 2.4 µM and the TGI is above 50 µM.
`COc1ccc(C[C@H](N)C(=O)N2C[C@@H](CO)C[C@@H](n3ccc(=O)[nH]c3=O)C2)cc1` registered a TGI above 100 µM.
Same read-out and setting: to `O=C(O)Cn1cc([N+](=O)[O-])c(=O)c2ccccc21` belongs above 100 µM.
Regarding `Cn1cc(C2=C(N3CCOCC3)C(=O)NC2=O)c2ccccc21`, the GI50 was above 25 µM and the TGI was above 25 µM.
Consider `C[N+](C)(CCNC(=O)c1cccc2cc3ccccc3nc12)Cc1ccc([N+](=O)[O-])s1`, for which the TGI is above 25 µM.
Consider `O=C(O)/C(=C\c1ccncc1)c1cccc2ccccc12`, for which the TGI is above 100 µM.
In the case of `CS(=O)(=O)N(c1cc(-c2ccc3ncnc(Nc4cccc(Cl)c4)c3c2)cnc1Cl)S(C)(=O)=O`, the GI50 is 0.882 µM and the TGI amounted to 5.36 µM.
Regarding `Cc1cc(S(=O)(=O)/N=C(/NN)NNc2cccc(C(F)(F)F)n2)c(S)cc1Cl`, the TGI stood at 88.3 µM.
`Oc1ccc(Cc2cc(Cl)cc(Cl)c2O)cc1Cl` registered a TGI of 36.7 µM.
As to `CC(C)(C)c1ccc(NS(=O)(=O)c2ccc3nc(NC(=O)c4cnccn4)[nH]c3c2)cc1`, the GI50 was 3.82 µM and the TGI was 15.7 µM.
`C=CCn1c(-c2ccc([N+](=O)[O-])cc2)csc1=N`: the TGI was above 100 µM.
With `CC1(C)N=C(c2ccccn2)C(c2ccccn2)=NC1(C)C`, the TGI was above 100 µM.
For `CC(=O)OC1COC(Nc2nc(N)n(C)c(=O)c2N=O)C(OC(C)=O)C1OC(C)=O` (stereo unspecified), the TGI was above 10 µM.
With `CC(C)(C)CC(C)(C)c1ccc(O)c(C[N+](C)(C)[O-])c1`, the TGI was above 100 µM.
`CC(=O)[O-].O=C([CH-]C(=O)c1ccccc1)c1ccccc1.O=C([CH-]C(=O)c1ccccc1)c1ccccc1.[Sm+3]`: the GI50 is 5.7 µM and the TGI was 39.3 µM.
For `CCN(Cc1c(Cl)cccc1Cl)c1ccc(CO)c(Cl)c1`, in that order: 12.9 µM and 26.2 µM.
Take `C[C@H]1COC2=C1C(=O)C(=O)c1c2ccc2c1CCCC2(C)C`: the TGI was 4.13 µM.
With `Oc1ccc(N=Nc2ccccn2)c(O)c1`, the GI50 is 1.16 µM and the TGI was above 100 µM.
Turning to `COc1ccccc1C(=O)N(C)c1ccc(Cl)c(C(=O)OC(C)C)c1`, the TGI is above 100 µM.
Same read-out and setting: for `NCCCNCCCCN1CC1` the value was 9.41 µM.
Consider `CN(C)CCCn1c(-c2nonc2N)nc2cnccc21`, for which the GI50 is above 25 µM and the TGI is above 25 µM.
`C=C(C(=O)O[C@H]1C(=O)C2=C(C)CCC3C(=C)C(=O)O[C@@H]3C2[C@]1(C)O)C1CC[C@]2(C)CCCC(=C)[C@H]2C1` (stereo partly specified) registered a TGI of 29.7 µM.
Same read-out and setting: to `C/C=N\N1C(=O)c2ccccc2C1=O` belongs above 100 µM.
As to `Cc1cccc(Cc2cnc(NC(=O)CCc3ccc(C)o3)s2)c1`, the GI50 was 1.18 µM and the TGI is above 100 µM.
Compound `O=C(N/N=C/c1cc(Br)cc(Br)c1[O-])c1ccccc1O.O=C(N/N=C/c1cc(Br)cc(Br)c1[O-])c1ccccc1O.[Ni+2]` yielded a TGI of 2.22 µM.
Consider `CC[C@H](C)C(=O)O[C@H]1C[C@H](O)C=C2C=C[C@H](C)[C@H](CC[C@@H](O)C[C@@H](O)CC(=O)O)[C@H]21`, for which the GI50 was above 100 µM and the TGI was above 100 µM.
For `CC(O)c1cc(C(=O)N[C@@H](C)Cn2ccc(-c3ccc(C#N)c(Cl)c3)n2)n[nH]1` (stereo partly specified), the GI50 is above 100 µM and the TGI is above 100 µM.
`O=C(/C=C\c1ccccc1)N1CCc2ccccc2C1` yielded a TGI above 100 µM.
Regarding `COc1cc2c3c(n(C)c(=O)c2cc1OC)-c1cc2c(cc1/C3=C\CCNCCCN)OCO2`, the GI50 was 2.2 µM and the TGI was determined as 12 µM.
As for `CN(C)C(=O)Oc1c(-c2ccccc2)c(=O)n2c3ccccc3n3c(=O)n(C)c(=O)c1c23`, the TGI is above 100 µM.
The compound `S=c1[nH]c2ccc(I)cc2c(=S)n1Cc1ccccc1` returned a TGI of 29 µM.
As to `C=CC(C)(C)C(=C)C(=O)Nc1ccccc1I`, the TGI is above 100 µM.
In the case of `O=c1oc2ccccc2c(O)c1C(C/C(CCN1CCCC1)=N\Nc1ccccc1)c1ccccc1` (stereo unspecified), the TGI is above 100 µM.
For the compound `Oc1c(CN2CCN(c3ccccc3)CC2)cc(Br)c2cccnc12`, the TGI turned out to be 36.3 µM.
On the same count and under the same terms, for `CC(C)=CC(=O)Cc1nc2ccc([N+](=O)[O-])cc2[nH]c1=O` the value was above 100 µM.
As to `O=C(O)C(=O)/C=C(\O)c1ccc(Br)cc1`, the TGI is above 100 µM.
As for `N#CC1C=Cc2c(ccc3ccccc23)N1C(=O)c1ccccc1` (stereo unspecified), the GI50 was 0.474 µM and the TGI stood at 71.3 µM.
In the case of `CC(=C/c1ccccc1)/C=C1/NC(=S)N(/C=C2\C(=O)Oc3ccccc3C2=O)C1=O`, the TGI is above 100 µM.
As for `COc1ccc(Cn2cc3c(c2-c2cc(OC)c(OC)c(OC)c2)CCc2cnoc2-3)cc1`, the GI50 was 0.515 µM and the TGI is above 100 µM.
As to `CC(=O)c1nc2ccccc2n1CC(=O)c1cccc(Cl)c1`, the GI50 is 3.32 µM and the TGI was above 100 µM.
With `c1ccc(CN2CCN3CCN(CC2)CCN(Cc2ccccc2)CC3)cc1`, the TGI came out at 37.3 µM.
With `C=C1C(=O)OC2CC3(C)OC3CC/C(C)=C/C(OC(C)=O)C12` (stereo unspecified), the TGI was 27.8 µM.
With `CNCCN=c1ccc2c3c1c(O)c1c(O)ccc(=O)c1c3[nH]n2CCNCCO`, the GI50 was 0.296 µM; the TGI was 3.51 µM and 3.77 µM.
On to `O=C1CSc2cc([N+](=O)[O-])ccc2N1`, for which the TGI is above 100 µM.
The same measure, in the same setting: to `Fc1cc(-c2cc(-c3ccc4c(c3)OCO4)n[nH]2)c(Cl)cc1Cl` belongs 5.01 µM; to `Cn1c(O)c(C=Nc2ccccc2Cl)c(=O)n(C)c1=O`, above 100 µM.
Compound `O=C(CC/C(CC(=O)c1ccc(Br)cc1)=N\O)Nc1ccc(Cl)c(Cl)c1` displayed a TGI above 100 µM.
Take `COc1cc(CS(=O)c2ccc(O)cc2)cc(OC)c1OC` (stereo unspecified): the TGI is above 100 µM.
